From the RNAGym collection of RNA variant scans (doi:10.7554/elife.90254)
The source gives no read counts; variants with many changes may rest on few reads.

B1: LINE1-mini (parent)
chain: GGCAGAGCUCAACACAGCGUGGCAAAGUGGCUGUGGCUAGACUGCC

Variants of: B1
Assay: self-cleavage, relative activity (ratio to wild type); higher = more cleavage; in vitro, sequencing; the parent is a self-cleaving ribozyme

Variant | self-cleavage
A4C C23A G30U | 0.23
A4C G7U U38G | 0.03
A6G G29A G40U | 0.02
C13A G21A A25U | 0.18
G2U G5A C8A G27C C37G | 0.01
A4U G17U A24G G29C | 0.05
U20G U32G G35U C45A | 0.2
A4C C8U C15U | 0.91
A11U C23A U34G | 0.02
A6U U9G C15A G21C G44C | 0.02
A6G A16C G36C C45U | 0.03
C8G G22U G36A | 0.07
G22U U34C A39C G40A | 0.08
G22A A26C G44A | 0.34
G7U G19U U38A A41U | 0.12
G7U G17C G21C A41G | 0.02
A4C G7A A12C | 0.21
C3A G5U A11U A12C A14C C15U C37A | 0.01
U9C C10A G35U G36U | 0.01
G2C C15A A25U | 0.11
C18U G21U A25C U43A C45A | 0.01
A12G U34G A39C | 0.02
C15G A26G C31A G35A C37G | 0.01
G2C A14G C23G | 0.05

Variant | self-cleavage
A24C A26U G27C U43C C45A | 0.1
C3G G7A G33A | 0.19
A6G G19C C23U U28C U38C C46A | 0.03
G1U C8G A39G A41U | 0.03
A4G A11C U28G | 0.01
G2C A12U A14U | 0.09
A11U A24U U32C U43A | 0
C13A G21C G27C C37A C46U | 0.01
G21U C31A C45U | 0.47
A6C G7U G17A A25C | 0.19
A4U G7A A24C G36C | 0.06
C3A G7C C13A G17U | 0.03
A24U A41C C45U | 0.02
U9A C13A G19U A24C G30C | 0.13
G17C C23A A24U | 2.67
A6U G21C C31A | 0.15
G19U G22C A24U U28C | 0.17
C13G C15A U20G A24U A26U | 0.02
A6U U34A G35U C37U U38G A41G | 0.03
G1U A14C A24C A39G | 0.01
A6C U9G U34A G44C | 0.03
A6C C10A A16C U28C C37U | 0.01
G7U C18U G40U C45A | 0.03
G2A C10G G33A A41U | 0.03

Variant | self-cleavage
C8U C13A A26G G30U C31U | 0.11
G1A G17A U28A | 0.04
A4U G17U G30A | 0.09
U38A C42U U43G | 0
G2C C3U A12G | 0.02
G5C C10A G19U U20A | 0.02
C3G C23G A24U U34G | 0.03
C18U U28A G33U G40C C46A | 0.01
G2C G27U G35U C45U | 0.02
A4G A6U U20G A25U C31U C46U | 0.06
A14C G19A G21U | 0.07
C3U U9A U34A | 0.07
C10A U34C G44U | 0.03
G1U C13G G21U A26G C42U U43C | 0.01
A4C G7C U20A | 0.33
C8G U28A C31G A41G | 0.02
A11U A14U C18G G40U | 0.02
A6C C42G C45G | 0.01
G1C U9G C10U A14G C23U U38A | 0
G2U C13U G36C | 0.01
C3U A24C A41G | 0.15
A26U G35U C37A | 0.09
G2A C3U C10U A39G G44U | 0.09
A4G C10A A11C C23U U28C U38G | 0.01

Variant | self-cleavage
C8G G19A G29C G30A | 0.04
U9G C13U C15G A16G | 0.04
C3A C8U C23G C42U | 1.72
U28A G30U G40A | 0.05
G2U G7U U34A U38G | 0
G2A G19A C23U U28A U43A | 0.49
C23A G33A G36C | 0.04
G5C A6U A39C U43A | 0.04
G2U G21U G27U G35C G40U | 0.01
G21U A25G G27U G40C A41U | 0.1
G5A A26U C37A C45A | 0.03
C10A C15A G22U G36U C46U | 0.02
G1U G5A A6G U20A A25U G27C U34C | 0.04
C15G U34A G40A | 0.01
G21A C42A C45U | 0.07
G19A G29C G36C | 0.08
C15U G27U U38A | 0.12
G27U A39U G40A | 0.05
G1U G17A G19A G22A G33C U38G | 0.01
G1C C23U A24C G30C U32C U38A C42A | 0.01
C13U G19A G21U G30A G40A | 0.02
C8U C13A G35A C42A | 0.76
G2A C31U G40C C46G | 0.08
U20C A26C A41C | 0.09

Variant | self-cleavage
G5A A12G G27C | 0.04
A14C G30U G36A | 0.05
C15U G19U G40A G44U | 0
C10A A16G G22U C23A C31U | 0.02
C23A C42U U43A C46A | 0.4
A14C G17A C45A C46G | 0.05
G2U G17A C42G G44U C45A | 0
A4U C8U C13G G44U | 0.98
C8U C13U G27U | 0.33
A6C G21U U28G C37A | 0.03
A4U U20C A39G C45G | 0.06
U28A G40U C45A | 0.12
G1C C8U A26U G33A G40U U43C G44U | 0.02
A4G G7A G17C G27C A39G | 0.19
C10A A26G G33A A41G C45U | 0.02
A14U C18A C37U | 0.05
G7U A11C A24C U43C | 0.01
C3A U32C G33A | 0.04
A11G C13A A16U G40C | 0.02
C8U G33U U43G | 0.13
G2A C15U A16C A41C U43A | 0.03
G1U C10A C46G | 0.07
G1C C8U G17U G40U | 0.05
G2A G30C G40A | 0.06

Variant | self-cleavage
A11G A12U G22C A24G C37G | 0.02
G21U C23U G36U C37G | 0.02
A6G G17A C23U U28A G36A G40U | 0.03
C8A U32A C37A | 0.12
G2A C8A C18U G27U G33U | 0.25
C8U G33C G36U C37G U38C C46U | 0.02
G1U C8A A39C U43A C45U | 0.07
G7A A24G C42A | 0.17
G1C C10A U20G G30A | 0.01
G7C C8G U20G A24C G44A | 0.11
C10U G29U A41U C46A | 0.03
C3A A11G G27U | 0.11
C15U G36A U43G | 0.3
A24U G27A U28A G35U | 0.1
A12U G21C C46A | 0.82
G40U U43G G44C | 0.05
G7C C13A U20A G30U | 0.01
G2A C13G C23G | 0.92
G17C U38C A41U | 0.09
G7U G27U G30C G36U | 0.14
G7C G27C C45U | 0.01
A4G C10A G29A | 0.01
G1U G22U G36C | 0.02
C15U C18U G27U G44A | 0.04

Variant | self-cleavage
G7A G17A G29C G35C C45A | 0.07
G1A C18U G22C C31U | 0.03
C13G A24G G33C A41U | 0.03
G2U C3A C18A U20C A39C A41C | 0.03
C3U A12G G40C | 0.02
G2U G7A A25G A26U G33U U38G | 0.01
C10G A24U G30A | 0.06
G2A C23G C42A | 0.49
C10U G17C U28A C46U | 0.17
A6U C10G G40U G44A | 0.02
G7U C10A G35A A39C C46G | 0.03
G7U U28G A39U C42G C45U | 0.01
G2A C8A C23A | 0.5
A12U G19U G35C C46A | 0.06
C8A G21C G27C | 0.19
C8U C15G A26U C37G A39C | 0.26
G1C C10A G29A | 0
G1C C15U A41U | 0.03
U9G C10A G29A G30A G36U C42G | 0
C10A C13A C45A | 0.01
U28G C37A G40C | 0.11
U32G C45U C46G | 0
C3U C13G C23U G27U | 0.11
